Over roughly 110,000 compounds, “z-score” has its median near -0.1; the highest 2% begin near 2. The list shows a part of the results.

The target in the assay is Metabotropic glutamate receptor 8 (Rattus norvegicus) (UniProt P70579). Briefly: mGluR8 Gi/Go-coupled signaling modulation – cell-based, rat, thallium flux, HTS, primary screen (AID 488969). As to conditions: HEK293 rat mGluR8, GIRK (G protein-gated inwardly rectifying potassium channel) thallium flux, FluoZin2; at 10 µM; stronger effect = higher value; submaximal glutamate (EC20) added with thallium.
Chain of UniProt P70579 (P70579 whole entry, looked up): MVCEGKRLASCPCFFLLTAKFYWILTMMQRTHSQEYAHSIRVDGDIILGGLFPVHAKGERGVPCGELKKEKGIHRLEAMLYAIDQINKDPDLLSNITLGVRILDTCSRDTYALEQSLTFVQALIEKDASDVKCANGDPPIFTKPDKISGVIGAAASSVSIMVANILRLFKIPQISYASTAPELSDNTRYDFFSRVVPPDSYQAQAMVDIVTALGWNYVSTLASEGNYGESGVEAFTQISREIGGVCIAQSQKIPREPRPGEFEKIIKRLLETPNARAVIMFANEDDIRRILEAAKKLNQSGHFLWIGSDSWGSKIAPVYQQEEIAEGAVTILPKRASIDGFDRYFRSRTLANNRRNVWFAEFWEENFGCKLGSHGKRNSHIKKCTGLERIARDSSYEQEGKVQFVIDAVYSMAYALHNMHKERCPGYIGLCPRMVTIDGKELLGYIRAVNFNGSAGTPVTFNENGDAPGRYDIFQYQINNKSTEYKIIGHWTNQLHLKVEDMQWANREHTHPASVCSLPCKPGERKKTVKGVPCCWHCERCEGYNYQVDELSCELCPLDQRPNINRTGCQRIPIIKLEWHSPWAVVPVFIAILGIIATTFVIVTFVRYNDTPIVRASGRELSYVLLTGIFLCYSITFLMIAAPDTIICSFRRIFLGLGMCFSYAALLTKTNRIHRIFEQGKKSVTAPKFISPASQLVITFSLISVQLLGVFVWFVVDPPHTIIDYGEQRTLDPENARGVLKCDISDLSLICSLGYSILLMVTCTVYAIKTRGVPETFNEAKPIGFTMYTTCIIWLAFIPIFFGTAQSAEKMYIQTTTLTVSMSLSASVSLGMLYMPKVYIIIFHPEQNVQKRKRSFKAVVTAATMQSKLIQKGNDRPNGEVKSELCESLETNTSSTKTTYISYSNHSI
`C(=N\n1cnnc1)/c1cccs1`: the z-score is -0.0688.
The value for `Cc1ccccc1OCCn1cc(/C(N)=N/O)c2ccccc21` was 0.429.
`CCOc1ccc(-c2n[nH]c(C)c2Oc2ccc(OC)cc2)c(O)c1`: the z-score was 1.23.
Compound `CCN(CC)CCNc1nc2ccccc2n1C` had a z-score of 0.699.
With `CCCCNC(=O)c1ccc2c(c1)N(CC)C(=O)CS2`, the z-score was found to be 0.279.
As for `CCOc1cc(CNn2nnnc2N)ccc1OCC(=O)NC(C)(C)C`, the z-score turned out to be 0.0877.
Regarding `CC(Nc1ccccc1)c1cc(Cl)ccc1O` (configuration not stated), the z-score is -0.679.
In turn, `CCN(CC)S(=O)(=O)c1cc([N+](=O)[O-])ccc1N=Nc1c(O)n(C)c2ccccc12` registered a z-score of -0.269.
In turn, `COc1cc(N=c2ssnc2Cl)cc(OC)c1` gave a z-score of 0.302.
With `O=C(CNC(=O)c1ccco1)OCc1c(F)cccc1Cl`, the z-score is -0.0239.
For `COc1cc(-c2nc3n(n2)C(c2cccc(OC)c2OC)C2=C(CCCC2=O)N3)cc(OC)c1OC` (configuration not stated), the z-score was -1.33.
For the compound `CC(=O)Nc1nc2ccccc2n1CCN(C)C`, the z-score is -0.911.
`COc1ccc(C(=O)CC(c2ccccc2)C2C(=O)CCCC2=O)cc1` (configuration not stated) registered a z-score of 1.12.
Regarding `CCC(c1nnc(SCC(=O)NCCc2ccc(Cl)cc2Cl)o1)N(C)C` (configuration not stated), the z-score was 0.138.
The value for `CCCCNC(=O)c1onc(CSc2ccc(OC)cc2)c1C(=O)O` was -0.264; that for `O=C(C1CCN(S(=O)(=O)c2cccc3cccnc23)CC1)N1CC=C(c2ccccc2)CC1` was -2.19.
`Cc1ccc(NCCC(=O)c2ccc(Cl)cc2)cc1` showed a z-score of -0.27.
In the case of `Cc1nn(CC(=O)NCc2ccccc2)c(=O)c2ccccc12`, the z-score is -0.576.
With `O=C(c1ccco1)N1CCN=C1SCc1ccccc1F`, the z-score was -0.0242.
`Cc1ccc(C(=O)N2CCN(c3ccc(NC(=S)NC(=O)Cc4ccccc4)cc3)CC2)cc1`: the z-score came out at 0.114.
In turn, `O=C(NC1CCCCC1)c1nc2c(nnn2Cc2ccccc2Cl)c(=O)[nH]1` yielded a z-score of -0.806.
Compound `O=C(NCC1(c2ccccc2)CCCC1)C(=O)N1CCOCC1` gave a z-score of -0.403.
In turn, `CC1CCN(c2nc3c(c(=O)[nH]c(=O)n3C)n2CCCc2ccccc2)CC1` yielded a z-score of -0.704.
As for `COc1cc(Cl)cc(NC(=O)CCN2CCN(C)CC2)c1`, the z-score came out at 0.892.
On to `O=C(Cn1cnc2c(nnn2Cc2ccc(Cl)cc2)c1=O)NCC1CCCO1` (configuration not stated), for which the z-score was -0.00714.
In turn, `O=C(Nc1ccccc1C(F)(F)F)c1cc(-c2cccc(O)c2)on1` displayed a z-score of 0.524.
The figure for `c1ccc(NC(=NCc2ccco2)c2ccccc2)cc1` is -0.548; for `CCCCOn1c(C)c(C(=O)OCC)c2c3nonc3ccc21` it is -0.842; for `O=C(CSc1ncn[nH]1)c1ccco1` it is 0.0338.
In turn, `Nc1c(C(=O)C2CC2)sc2nc(-c3ccccc3)cc(C(F)(F)F)c12` yielded a z-score of -1.24.
Compound `Cc1nc2nc(C)c(CCC(=O)N3CCc4ccccc43)c(C)n2n1` displayed a z-score of 0.142.
For the compound `COc1cc2c(cc1NC(=O)C(C)OC(=O)C1CC(=O)N(Cc3ccco3)C1)oc1ccccc12` (configuration not stated), the z-score is -0.283.
With `O=C1N=C(N2CCOCC2)S/C1=C/c1ccc(-c2ccccc2Cl)o1`, the z-score was -0.08.
The figure for `Cc1ccc(C)c(NC(=O)c2nc(-c3ccccc3)n(-c3ccccc3)n2)c1` is -0.0168; for `CN1CC(c2ccccn2)C2(SC(=S)N(Cc3ccccc3)C2=O)C12C(=O)Nc1ccccc12` (configuration not stated) it is -0.103.
The compound `O=C(NCCO)c1ccc2[nH]c3ccccc3c2c1` had a z-score of -0.163.
The value for `N#CC1=C(SCC(=O)NC2CCCCC2)NC(=O)CC1c1ccco1` (configuration not stated) was -0.314; that for `COc1ccccc1/C=C1\NC(=S)N(CC2CCCO2)C1=O` (configuration not stated) was 0.246; that for `O=[N+]([O-])c1ccc(O)c(/C=N\N=C2c3ccccc3-c3ccccc32)c1` was -0.297.
As to `Cn1c2ccccc2c2cc(C(=O)N3CCOCC3)sc21`, the z-score is -0.0317.
The value for `COc1ccc(-n2c(SCC(=O)Nc3ccccc3)nnc2-c2ccoc2C)cc1` was -0.171.
As to `CCN1C(=Nc2ccc(Cl)cc2)SC/C1=C\C(=O)OC`, the z-score was -0.144.
In turn, `Cc1ccc(COc2ccsc2-c2n[nH]c(=S)n2C)cc1` yielded a z-score of 0.986.
`Cc1ccc(-c2nnc(SCC#CCOC(=O)c3cccs3)o2)cc1` yielded a z-score of 0.19.
On to `COC(=O)c1[nH]c2ccc(F)cc2c1NC(=O)C1=COCCO1`, for which the z-score was -0.198.
`O=C(OC1CCOC1=O)c1cc(-c2ccc(Cl)cc2)nc2ccccc12` (configuration not stated) had a z-score of 0.4.
On to `COC(=O)CN1C2(C#N)CCCCC2CC2CCCCC21C#N` (configuration not stated), for which the z-score was 0.16.
Compound `COc1ccc(OC)c(Nc2nc(-c3sc(C)nc3C)cs2)c1` came in with a z-score of 0.304.
With `CC(C)CCNC(=O)CSc1nnc(-c2ccc(S(=O)(=O)N3CCCC3)cc2)n1C`, the z-score was -0.0644.
In turn, `Cc1ccc(-c2csc3ncnc(-n4nnc5ccccc54)c23)cc1` registered a z-score of -0.239.
The value for `Cc1c(Br)c([N+](=O)[O-])nn1CC(=O)Nc1c(C)n(C)n(-c2ccccc2)c1=O` was 0.124; that for `CN(C(N)=S)c1ccccc1` was -0.17.
For the compound `O=C(COC(=O)Cc1ccc(Cl)cc1)Nc1ccccc1-c1ccccc1`, the z-score was -0.515.
Take `CCc1c(C(=O)NCc2cnn(C)c2)csc1C`: the z-score amounted to 1.09.
The figure for `Cc1cccc(Nc2ccccc2C(=O)OCC(=O)NCc2ccco2)c1C` is -0.14; for `Cc1cc(NC(=O)CSc2nc3ccccc3c(=O)n2C(C)c2ccccc2)no1` (configuration not stated) it is 1.55; for `O=C(Cc1ccccc1)CC1(O)C(=O)Nc2ccccc21` (configuration not stated) it is 0.114.
The figure for `CC(C)[C@H](NC(=O)c1ccccc1)C(=O)OCC(=O)N1CC2(C)CC1CC(C)(C)C2` (some centres not stated) is -0.43; for `Cc1cc(S(=O)(=O)NC2CCCCC2)c(C)s1` it is -0.609.
`Cc1cc(SCC(=O)c2cccs2)nc2c(C)cccc12`: the z-score was -0.163.
The figure for `CCOC(=O)c1ccc(-c2ccc(/C=N/NC(=O)CN(c3ccccc3Cl)S(C)(=O)=O)o2)cc1` is 0.0251.
In turn, `Cc1nc(Nc2nc(-c3ccccc3)cc(=O)[nH]2)nc2ccccc12` had a z-score of -0.285.
Turning to `O=C1c2cccnc2C(Nc2ccccc2)N1Cc1ccco1` (configuration not stated), the z-score was -0.0682.
On to `CC(C(=O)O)N1C(=O)C2C3CC(C2C1=O)C1C(c2ccccc2)c2sc(=O)[nH]c2SC31` (configuration not stated), for which the z-score is -0.0636.
The compound `O=C(c1cc(-c2ccccc2Cl)on1)N1CCN(C(=O)c2ccco2)CC1` had a z-score of 0.424.
`COc1cc(C(=O)NCc2ccco2)c(Br)c(OC)c1OC` registered a z-score of -1.21.
In the case of `CN(C)S(=O)(=O)c1cc(C(=O)O)c(NC2CCCCC2)cc1Cl`, the z-score is -2.9.
`CS(=O)(=O)c1ccc(Cl)c(NC(=O)c2ccc3ccccc3c2)c1` displayed a z-score of -0.115.
`CCn1c(=O)n(CC)c2cc(S(=O)(=O)N3CCOCC3)ccc21` gave a z-score of -0.206.
As for `CCCCC(CC(C)O)c1n[nH]c(=S)n1-c1ccccc1` (configuration not stated), the z-score was -0.118.
With `COCCNC(=O)COC(=O)/C=C/c1cnc2ccccc2n1`, the z-score was -0.0356.
Consider `N=c1ccn(Cc2ccc(Cl)c(Cl)c2)cc1`, for which the z-score worked out at 0.00793.
For `Cc1c(C)[n+](=O)c(-c2cccs2)c(C)n1[O-]`, the z-score is -0.242.
The value for `Cc1cc(NS(=O)(=O)c2ccc(NC(=O)c3cc4ccccc4o3)cc2)nc(C)n1` was -1.23; that for `CCCSc1nc(O)c(C2OC(=O)c3c2ccc(OC)c3OC)c(=O)n1C` (configuration not stated) was -0.174.
Compound `C=C(C)CC1N(c2cccc(OC)c2)C(=O)C2C(C(=O)O)C3C=CC21O3` (configuration not stated) had a z-score of -0.0137.
`CCOc1ccc(-n2c(=O)c3c4c(sc3n(CC(=O)NCc3ccco3)c2=O)CCC4)cc1`: the z-score was 0.0326.
For the compound `CCOC(=O)c1sc2ccc(S(=O)(=O)N3CCOCC3)cc2c1N`, the z-score worked out at 0.0584.
For `O=C(NC(Cc1c[nH]c2ccccc12)C(=O)Nc1ccc(F)c([N+](=O)[O-])c1)c1cccs1` (configuration not stated), the z-score is -0.409.
`C/C(=N/NC(=O)c1sc(=S)n(C)c1C)c1ccccc1` registered a z-score of 0.314.
`CCCN1CCN(C(=O)c2cn(CC(C)C)c(=O)c3cc(OC)c(OC)cc23)CC1` gave a z-score of -0.37.
The figure for `COc1ccc(C2CC(C(F)(F)F)n3nc(C(=O)NCCCn4ccnc4)cc3N2)cc1OC` (configuration not stated) is -0.288; for `CCC1(CC)Cc2ccccc2-c2nc3ccccc3c(=O)n21` it is -0.682.
For the compound `CC(C)(C)C1CCC(=NNC(=O)c2cc3c(s2)CCCC3)CC1` (configuration not stated), the z-score was -0.603.
`COc1cccc(-c2nnc(SCC(=O)N3CC(C)CC(C)C3)o2)c1` (configuration not stated): the z-score was -0.181.
For `O=C(Nc1ccsc1C(=O)N1CCCCCC1)c1ccccc1`, the z-score is -0.388.
The value for `O=C(COc1ccc2c(c1)C(=O)CC1(CCCCC1)O2)NCc1ccccc1` was -0.149; that for `CN1/C(=C\C=C(/C#N)C(=O)Nc2ccccc2F)C(C)(C)c2ccccc21` was -0.185.
The compound `CC(C)(C)n1cnc2cc(NS(=O)(=O)c3ccccc3)ccc21` gave a z-score of 0.0342.
`COc1cc(C(=O)N2CCN(C(=O)CC(C)C)CC2)cc(OC)c1OC` returned a z-score of 0.884.
For the compound `CN(Cc1ccccc1)c1nc2c(c(=O)[nH]c(=O)n2C)n1Cc1ccccc1`, the z-score was -0.176.
`O=C(OCCOc1ccc(Br)cc1)c1cnccn1` had a z-score of -0.463.
In turn, `Cn1c(=O)oc2cc(S(=O)(=O)NC3CCN(Cc4ccccc4)CC3)ccc21` displayed a z-score of -0.316.
The compound `COc1ccc(-c2nc(-c3ccccc3)c(-c3cc([N+](=O)[O-])ccc3C)[nH]2)cc1OC` showed a z-score of -0.0477.
In turn, `O=C(Nc1cc(Cl)ccc1Cl)c1ccc(-c2ccccc2)cc1` registered a z-score of 0.577.
`C=C(C)C1CC=C(C)/C(=N/NC(=O)c2ccc(NC(=O)CCC)cc2)C1` (configuration not stated): the z-score worked out at 1.79.
In turn, `O=C(Nc1nnc(Cc2ccccc2)s1)c1ccco1` gave a z-score of -1.09.
On to `N#Cc1cc2c(N)c(C(=O)Nc3ccccc3)sc2nc1N`, for which the z-score is -0.112.
`O=C(NNC1CC(=O)N(c2ccc3c(c2)OCCO3)C1=O)c1ccccc1` (configuration not stated) showed a z-score of -0.172.
The compound `C=CCn1c(-c2ccc(Cl)cc2)ccc(C#N)c1=O` showed a z-score of -0.191.
`CCCC(C)C(=O)Nc1ccc(Cl)cc1Cl` (configuration not stated): the z-score was -0.349.
Turning to `Cc1ccc(-n2nnnc2SCc2ccccn2)cc1C`, the z-score is -0.0348.
`COC(=O)c1ccc(C(=O)OC)c(NC(=O)CCc2ccc(C)o2)c1` gave a z-score of -0.67.
Consider `Nc1nnc(SCC(=O)Nc2cc(C(F)(F)F)ccc2N2CCOCC2)s1`, for which the z-score is -0.569.
Compound `COc1ccc(OCC(=O)N/N=C2\CCCc3ccccc32)cc1` yielded a z-score of -0.0965.
The compound `CCCn1c(SCC(=O)c2ccc3c(c2)OCCO3)nnc1C(C)C` yielded a z-score of 0.298.
With `Cc1ccc(OCC(=O)NNC(=O)C2CCN(c3ncccn3)CC2)cc1`, the z-score came to 0.269.
Take `O=C(/C=C/Nc1ccc([N+](=O)[O-])cc1)c1ccc(Br)cc1`: the z-score is -0.483.
In turn, `CC1CCCC(C)N1/N=C/c1cc(Br)cc(Br)c1O` (configuration not stated) showed a z-score of -0.515.
On to `N/N=C(\c1ccccc1)C12CN3CN(CN(C3)C1)C2`, for which the z-score is -0.101.
The compound `Cc1cc(-c2ccccc2)c(C#N)c(=S)[nH]1` displayed a z-score of 0.152.
The figure for `COC(=O)c1cc(Cl)c(NC(=O)c2ccc(F)cc2)cc1OC` is -0.134.

The values above are taken from PubChem BioAssay AID488969 (Vanderbilt High Throughput Screening Facility, 2010).
